PubChem BioAssay AID1460 (National Center for Advancing Translational Sciences (NCATS), 2008)
Several values for one entry are separate records, joined by “and”; a condition that tells them apart may be missing. Equal values may be shown once. Out of some 270,000 compounds screened, about 5,800 (2.1%) were called active. Inconclusive results, whose numbers are uncertain, are shown with a selection of clear calls. Calls follow the shape of the dose curve; as a rule, active = well fitted inhibition curve with a large enough effect; inconclusive = small, poorly fitted or top-dose-only effect; inactive = flat fitted curve, though single readings scatter. Where the call is inconclusive, the potency comes from a doubtful curve fit.

Target: Microtubule-associated protein tau (Homo sapiens) (UniProt P10636)
Chain of UniProt P10636 (P10636 whole entry, looked up): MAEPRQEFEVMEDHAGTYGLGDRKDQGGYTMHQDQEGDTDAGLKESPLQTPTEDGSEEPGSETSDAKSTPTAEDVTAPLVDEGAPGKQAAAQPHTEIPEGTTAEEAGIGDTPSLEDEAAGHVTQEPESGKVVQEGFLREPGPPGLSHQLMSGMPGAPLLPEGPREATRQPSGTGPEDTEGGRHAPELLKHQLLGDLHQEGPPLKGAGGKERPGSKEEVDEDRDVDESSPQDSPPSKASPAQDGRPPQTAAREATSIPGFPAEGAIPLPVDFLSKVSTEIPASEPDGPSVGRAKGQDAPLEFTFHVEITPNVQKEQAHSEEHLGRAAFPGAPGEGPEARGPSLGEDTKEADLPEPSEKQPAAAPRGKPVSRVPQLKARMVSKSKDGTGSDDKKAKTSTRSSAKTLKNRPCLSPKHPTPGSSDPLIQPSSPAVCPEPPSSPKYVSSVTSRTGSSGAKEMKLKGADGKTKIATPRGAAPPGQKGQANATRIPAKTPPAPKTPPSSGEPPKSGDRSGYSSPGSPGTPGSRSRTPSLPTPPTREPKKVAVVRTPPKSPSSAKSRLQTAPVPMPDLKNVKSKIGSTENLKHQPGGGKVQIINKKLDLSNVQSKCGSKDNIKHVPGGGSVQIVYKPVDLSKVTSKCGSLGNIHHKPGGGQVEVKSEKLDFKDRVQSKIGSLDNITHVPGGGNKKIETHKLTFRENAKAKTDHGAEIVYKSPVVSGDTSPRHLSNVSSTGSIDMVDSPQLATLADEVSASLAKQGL
Assay: qHTS for Inhibitors of Tau Fibril Formation, Thioflavin T Binding; also: nearly all actives have a fitted effect of over 55% in size
Details: recombinant tau K18 P301L, heparin-induced fibrillization, ThT fluorescence; series mostly up to 57.4 µM
Outline: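 Using a mix of unlabeled (15 uM) and Alexa 594-labeled (0.24 uM) tau K18 P301L, heparin-triggered fibrillization over 6 hr at 37 C was scored by ThT fluorescence.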
Potency is read from the fitted curve at half-maximal effect; tags tell the direction and shape of the fitted curve.

Row | Compound | Potency
1 | S=c1[nH]nc(C2CCCCC2)n1/N=C/c1cccs1 | inconclusive: 22.4 µM [inhibitor, partial curve]
2 | CCC(c1nnnn1CCc1ccccc1)N(Cc1ccco1)Cc1cc2cccc(C)c2[nH]c1=O (configuration not stated) | inconclusive: 2.82 µM [inhibitor, partial curve]
3 | COc1ccc(-n2cc(-c3ccc4c(c3)OCO4)n(CC(=O)Nc3cccc(C)c3C)c2=O)c(OC)c1 | inconclusive: 17.8 µM [inhibitor, single point]
4 | Cc1cccc(Nc2nnc(SCC(=O)Nc3ccc(C(=O)O)cc3)s2)c1 | inconclusive: 12.6 µM [inhibitor, partial curve]
5 | Cc1ccc(C)c(N2CCN(S(=O)(=O)c3ccc(-c4coc(C)n4)cc3)CC2)c1 | inactive
6 | COc1ccc(-c2cc(N3C(=O)Nc4ccccc4N3O)n[nH]2)cc1OC | inconclusive: 25.1 µM [inhibitor, partial curve]
7 | CCOC(=O)c1sc(NN=C(C(=O)OC)C(=O)OC)c(C(=O)OCC)c1C | inconclusive: 3.16 µM [inhibitor, single point]
8 | CCN(CC)c1ccc2c(O)cc(=O)oc2c1 | inconclusive: 15.8 µM [inhibitor, partial curve]
9 | COC(=O)c1cc2c(s1)-c1ccc(OC)cc1CC2 | inconclusive: 17.8 µM [inhibitor, partial curve]
10 | COc1cccc(/C(O)=C2/C(=O)C(=O)N(CCN3CCOCC3)C2c2cccs2)c1 (configuration not stated) | inactive
11 | O=C(CSc1ncn(-c2ccccc2)n1)N1CCc2ccccc21 | inconclusive: 3.55 µM [inhibitor, full curve]
12 | COc1ccccc1OCc1nnc(SCC(=O)NCc2ccco2)n1Cc1ccco1 | inconclusive: 39.8 µM [inhibitor, single point]
13 | Cc1ccc(S(=O)(=O)NCC(=O)N(CC(=O)NCC2CCCO2)Cc2ccco2)cc1 (configuration not stated) | inconclusive: 25.1 µM [inhibitor, single point]
14 | COc1ccc(CC(=O)Nn2c(-c3ccccc3)nc3ccccc3c2=O)cc1 | inactive
15 | CC(=O)Nc1nonc1-c1nnc(SCC(=O)Nc2cc(Cl)ccc2C)n1C | inactive
16 | C[n+]1ccc(C(=O)N/N=C/c2ccco2)cc1 | inactive
17 | Cc1ncsc1CCSc1nc2ccccc2c(=O)n1C | inconclusive: 2 µM [inhibitor, partial curve]
18 | CCOc1ccccc1NC(=O)c1cccc(NC(=O)c2ccco2)c1 | inactive
19 | CCOC(=O)c1sc(NC(=O)Cn2nnc3sc4c(c3c2=O)CCCC4)nc1C | inconclusive: 10 µM [inhibitor, partial curve]
20 | CN(C)c1ccnc2c[cH-]cc12.[Fe].c1ccc(-[c-]2[c-](-c3ccccc3)[c-](-c3ccccc3)[c-](-c3ccccc3)[c-]2-c2ccccc2)cc1 (configuration not stated) | inconclusive: 4.47 µM [inhibitor, full curve] and inconclusive: 39.8 µM [inhibitor, single point]
21 | COc1cccc2cc(-c3nc(Nc4cccc(C)c4C)sc3C)c(=O)oc12 | inconclusive: 15.8 µM [inhibitor, partial curve]
22 | O=C(COCc1cc(-c2ccc(F)cc2)on1)Nc1cc(Cl)ccc1O | inactive
23 | NC(=O)N=Nc1c2[nH]c3ccccc3nc-2c2ccccc12 | inconclusive: 11.2 µM [inhibitor, partial curve]
24 | Cc1ccc(NC(=O)CNc2ccc(Cl)c(Cl)c2)cc1S(=O)(=O)N(C)C | inactive

Row | Compound | Potency
25 | CC(=O)C1=C(c2ccc(Cl)c(Cl)c2)N(C(C)=O)n2c(nnc2-c2ccccc2)S1 | inconclusive: 15.8 µM [inhibitor, partial curve]
26 | Cc1cc(C(=O)COC(=O)c2ccc3c(c2)NC(=O)CS3)c(C)n1CC1CCCO1 (configuration not stated) | inconclusive: 28.2 µM [inhibitor, single point]
27 | COC(=O)c1cc(NCc2ccc3c(c2)OCO3)ccc1N1CCOCC1 | inconclusive: 35.5 µM [inhibitor, partial curve]
28 | O=C(Nc1ccc(F)cc1F)Nc1ccc(F)cc1F | inactive
29 | COc1cc(OC)c(NC(=O)c2noc3c2CSc2ccccc2-3)cc1Cl | inconclusive: 10 µM [inhibitor, partial curve]
30 | CCCCn1c(SCC(=O)Nc2ccc(OCC)cc2)nc2ccsc2c1=O | inactive
31 | COc1cccc(-c2nc(CS(=O)(=O)CC(=O)Nc3c(C)cccc3C)c(C)o2)c1 | inconclusive: 17.8 µM [inhibitor, partial curve]
32 | CC(=O)c1ccc(N2CCN(C(=O)CCc3nnc4n(C)c(=O)c5sccc5n34)CC2)cc1 | inactive
33 | C=CCc1ccccc1OCC(O)CNC (configuration not stated) | inactive
34 | Cc1ccc(C2=NN=C(NC(=O)CSc3nncn3C)SC2)cc1 | active: 22.4 µM
35 | CCOc1ccccc1C(=O)OCC(=O)Nc1ccc(N2CCCCC2)cc1 | inconclusive: 10 µM [inhibitor, partial curve]
36 | CCOC(=O)C(=O)c1csc(NC(=O)CCSc2ccc(C)cc2)n1 | inactive
37 | CC(=O)/C(N=Nc1c(C)n(C)n(-c2ccccc2)c1=O)=C(\C)O | inactive
38 | CCOC(=O)c1cc(S(=O)(=O)NCc2cccc(Cl)c2)[nH]n1 | inactive
39 | O=C(O)/C=C\C(=O)Nc1ccc(N2CCN(c3ccc(F)cc3)CC2)cc1 | active: 5.62 µM
40 | CCn1c2ccccc2c2cc(NC(=O)c3ccc(=O)oc3)ccc21 | inconclusive: 2.51 µM [inhibitor, full curve]
41 | Cn1c(=O)c2c(nc(NCCc3ccccc3)n2Cc2ccc(Cl)cc2)n(C)c1=O | inactive
42 | CCCc1nc2oc3cc(OC)ccc3c(=O)c2c(=O)n1Cc1ccco1 | inconclusive: 20 µM [inhibitor, single point]
43 | Nc1ccc2nc(-c3ccccc3)[nH]c2c1 | inconclusive: 25.1 µM [inhibitor, partial curve]
44 | O=C(O)CNC(=O)C1COc2ccccc2O1 (configuration not stated) | inactive
45 | O=C(COc1ccc(Br)cc1)Nc1ccc([N+](=O)[O-])cn1 | inconclusive: 3.98 µM [inhibitor, full curve]
46 | CC(C)COc1ccc(C(=O)Nc2ccc(SC(F)F)cc2)cc1 | inactive
47 | COc1ccc(-n2c(Cc3cccn3C)nnc2SCC(=O)N2CCCc3ccccc32)cc1 | inactive
48 | O=C(/C=C/Nc1cccc([N+](=O)[O-])c1)c1cccs1 | active: 4.47 µM

Row | Compound | Potency
49 | CCCCOC(=O)c1ccc(NC(=O)c2cc(-c3cccs3)on2)cc1 | inconclusive: 1.58 µM [inhibitor, full curve, poor fit]
50 | COc1ccc(NC(=O)COc2ccc3c(c2)CCC3)cc1 | inconclusive: 14.1 µM [inhibitor, partial curve]
51 | Cc1cccc(C)c1NC(=O)CN(C)CC(=O)Nc1cc(Cl)ccc1C#N | inactive
52 | CCOC(=O)C1=C(CSc2nc(-c3ccccc3)ccc2C#N)OC(N)=C(C#N)C1c1cccnc1 (configuration not stated) | inconclusive: 25.1 µM [inhibitor, partial curve, poor fit]
53 | O=C(CSC1=NCCS1)Nc1cccc2ccccc12 | inconclusive: 31.6 µM [inhibitor, partial curve]
54 | Oc1ccc(-c2csc(Nc3ncccn3)n2)cc1 | inconclusive: 7.08 µM [inhibitor, partial curve]
55 | Cc1oc2c(c1C(=O)Nc1cccc3ccccc13)CCCC2 | inconclusive: 20 µM [inhibitor, partial curve]
56 | COC(=O)c1cc(Cl)ccc1NC(=O)CSc1ncc(S(=O)(=O)c2ccc(Br)cc2)c(=O)[nH]1 | active: 31.6 µM
57 | Cc1cc(C)c2c(N)c(C(=O)N/N=C/c3ccccc3)sc2n1 | inconclusive: 2.82 µM [inhibitor, full curve]
58 | CCOC(=O)c1c(N)sc(C)c1-c1ccccc1 | inactive
59 | Cc1ccc(/C=C/C(=O)N2CCC(Cc3ccccc3)CC2)cc1 | inconclusive: 22.4 µM [inhibitor, partial curve]
60 | c1ccc(Nc2nnc(SCc3cccc4ccccc34)s2)cc1 | inactive
61 | Cc1cc(C)c[n+](C2=C([O-])c3ccccc3C(=O)/C2=N\S(=O)(=O)c2cccs2)c1 | inactive
62 | O=C(Nc1ccc2oc(-c3ccc4ccccc4c3)nc2c1)c1ccc(Cl)c(Cl)c1 | inconclusive: 0.891 µM [inhibitor, full curve]
63 | CC(=O)NC(Cc1cccc(C)c1)C(=O)NC1CCN(c2ncccc2[N+](=O)[O-])CC1 (configuration not stated) | inconclusive: 17.8 µM [inhibitor, partial curve, poor fit]
64 | CCc1c(C)nc2c(C)cccc2c1SCCC#N | inconclusive: 39.8 µM [inhibitor, single point]
65 | FC(F)(F)c1nnc(-c2ccccc2)nc1Oc1ccccc1 | inconclusive: 44.7 µM [inhibitor, single point]
66 | Cc1ccc(C(C(=O)NCc2ccco2)N(Cc2ccco2)C(=O)CNC(=O)c2ccco2)cc1 (configuration not stated) | active: 7.08 µM
67 | COc1ccc(CN=C2NC(=O)CC(C(=O)Nc3cc(C)cc(C)c3)S2)cc1 (configuration not stated) | inconclusive: 39.8 µM [inhibitor, single point]
68 | O=c1[nH]c2ccc(NCc3ccc(-c4ccccc4)o3)cc2[nH]1 | inconclusive: 1.78 µM [inhibitor, full curve]
69 | CC(=O)n1cc(Nc2ccc([N+](=O)[O-])cc2)c2ccccc21 | inconclusive: 7.08 µM [inhibitor, partial curve]
70 | CCOC(=O)c1cnc2ccc(C)cc2c1Nc1ccc(N(CC)CC)cc1 | active: 12.6 µM
71 | CCCc1nnc(NC(=O)c2cc(=O)c3cc(C)c(C)cc3o2)s1 | inactive
72 | CCC(CO)Nc1ccc(-c2nn(C)c(=O)c3ccccc23)cc1[N+](=O)[O-] (configuration not stated) | active: 25.1 µM
